In the data set the test system is ATP. Put plainly: switch fluorescence ratio, 500 uM ATP over buffer (Cy3 cluster intensity, sum of 5 cycles each) (fold (ratio)); higher = stronger signal-on switching upon ATP binding; sequences stand for … in TCGTCGGCAGCGTCAGATGTGTATAAGAGACAGTTTTTTTTTTTTTTTTTTTTTTTTT…TC. Particulars: aptamer strand: ATP DNA aptamer (quencher-CACCTGGGGGAGTATTGCGGAGGAAGG + anchor), 100 nM annealed; ATP concentration: 500 uM; one replicate. The procedure, abridged: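 Five buffer/ATP imaging cycles were run on Cy3-labelled switching-strand clusters on a modified Illumina MiSeq flow-cell, with NaOH stripping and re-annealing between cycles. In each cycle, clusters annealed to 100 nM quencher-labelled ATP aptamer were imaged in selection buffer, then after 15 min with 500 uM ATP at 22 °C. Per cluster, the fluorescence ratio is summed target-cycle over summed buffer-cycle Cy3 intensity, averaged per switch-domain sequence. Only clusters within 100-1000 RFU were kept.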

Values marked as one replicate rest on one cluster of the flow cell; about a third of the high ones do not repeat.
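Further: ATP exposure 15 min at 22 °C before imaging.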

Turning to GGTAGACTTG, the switch fluorescence ratio is 1.04.
On to TCCAACAAGA, for which the switch fluorescence ratio is 1.3.
The result for AACTGGTCAA reads 1.05; that for ACGATACGGC, 1.51; that for TAATTGCG, 1.02.
Under CTATGGTTTG stands 0.972; under GATTTTAGGG, 0.96; under ACGAACGGG, 1.48.
The result for GGTTAAGAGT reads 0.961; that for TTGCATGGCT, 1.07.
In the case of TTTGCGACAG, the switch fluorescence ratio came to 1.03.
The result for CGGCAGTCGG reads 1.07.
As for ACTTTCATTG, the switch fluorescence ratio was 1.13.
AAACGTCGAC: the switch fluorescence ratio came out at 0.957.
The result for AGGAAAGGTA reads 1.05; that for TTATTGTCTG, 0.983; that for CATCCGTCAG, 3.52.
The result for GCCGTCGCAT reads 0.992; that for ATCTTGTATT, 0.985; that for AGGAGCTTCT, 1.
Under CCGTCCGCGG stands 3.38.
As for CAGAAGTGGT, the switch fluorescence ratio was 0.981.
The result for AAGTTAACTG reads 1.06.
Under AACTGAAGGA stands 0.963; under TACGCCAGTA, 1; under GCAACTGCCC, 1.22.
Under CGGAAACTCT stands 1.07; under GCGCATCAGA, 1.01; under TGTGGGCGAC, 0.991.
AAGGGGAGCT: the switch fluorescence ratio came to 1.03.
Under TGTTAGATCT stands 0.99.
Regarding AAATTAATAG, the switch fluorescence ratio turned out to be 1.03.
The result for TTGACTACAA reads 1.03.
With CACGCGTCCA, the switch fluorescence ratio amounted to 0.999.
Under AGTTAAGGAG stands 0.983.
The result for CACGGTTGCG reads 1.01; that for GGGGCCGGCT, 1.08; that for CCAGGGAAAT, 1.01.
Take ACACTTGGTA: the switch fluorescence ratio was 1.01.
For the sequence TCCATGTTGC, the switch fluorescence ratio amounted to 0.932.
Under CAGCCTCATA stands 1.02; under CTGTGAGGTT, 1.1.
For the sequence AGAGCAAAGG, the switch fluorescence ratio stood at 1.08.
As for TTAGAGACGG, the switch fluorescence ratio was found to be 1.04.
Under GTTCATTTAT stands 0.974.
Under AACGACGTGT stands 1.02; under TCCACTAAGA, 1.07; under CTGCCGGGAC, 1.54.
In the case of TAAGACGCGA, the switch fluorescence ratio worked out at 0.984.
For the sequence GCGGGCTCGT, the switch fluorescence ratio is 1.09.
The result for GTAGGGGGAA reads 1.02; that for CCACGCCACG, 1.55.
Take TGGTTTAGG: the switch fluorescence ratio was found to be 0.96.
In the case of AAAGCCTTAG, the switch fluorescence ratio turned out to be 1.03.
Under CGCTGACTTT stands 1.03; under GCAGAGGTTT, 1.01.
The result for GATCGAGATC reads 1.04; that for GAGGATGGAA, 1.2.
For TAATGGTGTC, the switch fluorescence ratio amounted to 0.994.
The result for GCCGAGTGAG reads 0.97.
Take TCATTTTTTG: the switch fluorescence ratio amounted to 0.997.
The result for CCAAGGTCGA reads 1.03; that for ACGTACGGAG, 1.38.
The result for CGTGAGATTT reads 0.979; that for TTATAGCTGG, 0.973; that for CTTGTGGATA, 1.02.
ATCCCCGGAA: the switch fluorescence ratio came to 2.57.
As to CCTGGGTTGC, the switch fluorescence ratio is 1.05.
The result for CCATGTAATC reads 1.36; that for GAATCAGGCC, 1.02; that for TAGACGGATA, 0.994.
Regarding AGCTGAACCG, the switch fluorescence ratio was 1.02.
Under ATTAGCGCTC stands 1.02; under TAACATATGA, 1.02; under AACCATCGCC, 1.09.
The result for TATAACTCG reads 0.982; that for ACAAAACATT, 1.13.
The result for ACGCGGAGAA reads 1.02; that for CTAAAAGGAG, 0.98.
With CTCCGAGGGT, the switch fluorescence ratio amounted to 1.44.
Under TTACGCATA stands 1.93; under TACTCACTTA, 1.18.
Turning to AATCGAGGTC, the switch fluorescence ratio stood at 0.959.
Under AGCCATTGCG stands 0.999; under TTAAGAGAAA, 0.974; under ATGCATCGTC, 1.01.
Take TCAATTAGTA: the switch fluorescence ratio is 0.99.
With CGCGGTGTAG, the switch fluorescence ratio was found to be 0.989.
Consider TTTTTGAGTC, for which the switch fluorescence ratio is 0.905.
With AACGGAGAAG, the switch fluorescence ratio was 1.
The result for GCCGTAAATG reads 1.03; that for GTAGCTAGGA, 1.08.
The result for CGAGAGAGTA reads 0.975; that for CTGTCTTACC, 1.03; that for CTTGTTAGGT, 0.986.
Under TTCAATAAGA stands 1.02; under TTTTAGGTTG, 0.984.
For GCATAATGAC, the switch fluorescence ratio is 1.17.
Under ATTCCCAGAC stands 1.34; under TGCAGCTGTT, 0.989; under TGGAAATC, 0.975.
ACGGTGGATG: the switch fluorescence ratio was 1.04.
The result for CAATGTTTTG reads 1.04.
The result for TACCAAATTA reads 1.02; that for CCCGATGCGT, 1.54.
Under CCTTACGCTG stands 1.24.
Consider GTTTCAGGAC, for which the switch fluorescence ratio turned out to be 1.02.
On to AATTTATCA, for which the switch fluorescence ratio turned out to be 1.02.
As to GGAGCCAACC, the switch fluorescence ratio amounted to 1.09.
For the sequence GCCATTTCCT, the switch fluorescence ratio is 1.
The result for GTGTGGCCAG reads 1.01; that for GCAATTTGA, 1.03.
Turning to AAACAGGGCA, the switch fluorescence ratio is 1.02.
Under ATATTAGCAG stands 1.02.
The result for AGCCCGCTAT reads 1; that for TGTATTGCTT, 0.987.
Regarding GTTATACTTG, the switch fluorescence ratio came to 0.986.
As for ATGGCGAGAG, the switch fluorescence ratio stood at 1.09.
As to TTGTAAGACG, the switch fluorescence ratio amounted to 0.93.
For the sequence AACTGGTTCA, the switch fluorescence ratio worked out at 0.975.
